Article PMC7483518, “Destabilizing single chain major histocompatibility complex class I protein for repurposed enterokinase proteolysis” (Scientific Reports, 2020)
Values joined by “and” are separate entries in the source; they are usually repeats but may differ in a detail not shown here. Identical values can stand only once.

These sequences were tested on HLA-A*11:01 single chain protein.
Type: biochemical, Human

| Sequence | Adj. Volume (Int), 50 kDa band |
| --- | --- |
| SLLDYVREHK [CS1027] | 26937450 Int and 31466240 Int |
| FGSLLDYVREHK [CS1048] | 8156162 Int and 7302670 Int |
| SLLDYVREH [CS1017] | 25592050 Int and 26523910 Int |
| GSLLDYVREHK [CS1037] | 12475082 Int and 11233532 Int |
| MQLMPFGCLLDY [TM1050] | 7701454 Int and 8605228 Int |
| SLLDYVREHKDN [CS1050] | 8030240 Int and 7117786 Int |
| QLMPFGSLLDY [CS1032] | 28066532 Int and 32367720 Int |
| VAIKTSPKANK [EX1018, EGFR exon 19 deletion-derived peptide] | 8172344 Int and 10263666 Int |
